From the supplement of paper PMC12632987 come the findings set out here.

To fix the notation:
B1: LC3A_28_885 (protein)
chain: GSALKSAEEALEKVKKALEAGDKEPLVLEVDAPSEPEDVEKFIELLEEIAKEASKGIKVHIVVDISSDVSQENRDKIIDAGDEIEKKYPNVTVIFALPED
B2: LC3A_45_1967 (protein)
chain: MYKATLYLLVPRELAEKALAVMEEEVERLRREEGLEAEVLRERNEENLKRDQDTGEVLLEVEIIAPTKQEALDAADRIHDAVEEATGKPVAAIIEVEEVP
B3: LC3A_3_1495 (protein)
chain: MEELLKKVKEVLEKLGASPEQIKRVLEDAKKLLEKGYEKTVEKLIELLEKYKDLSPLDLTAAFLTTADEALEKNLSEEEAVEKAEEIFEDVAEIEALDEE
B4: LC3A_3_1755 (protein)
chain: MEEKLKEAREELKELGFSDEVIERALKVVEALLKKGFEEAVEVLIEELKELKDLPDEIILDMLDDILEKVETEDLNEEEVIEVIKEEARVARSESEIIEL
B5: LC3A_28_1063 (protein)
chain: SKVEAEIKKALAEAKEAVAAGEEALVTITIDDSDSDEDVEKKLKTMEEIAELTKTLPRTTILVDIDSSRKEEISKKVSEVGDKLEKKYPNVTVIIALSEE
B6: LC3A_3_1730 (protein)
chain: MEELLEKYRKRIESLGLSKEVQEKAMETIKLLLEKGLEEEVDLLLETLEKIKDADQEVILEGLEEIKELVETSKLPKEELAKKVKEEIKTLENDGEIIEL
B7: LC3A_28_1033 (protein)
chain: SALEAAADAALAEARAQFEAGEDAVVTLDVGDVDTETARAVVTAFLERLRALSAEHGGRKVSVVINYDGDQEGLDAIIDAAEAAEAADPNLTVIIAYADK
B8: LC3A_3_1789 (protein)
chain: GEERLERLLERLRAAGKSEETIAAVRRTGERLLELGYEEALETFIEEMERLIDAPDELLLDLAERVLEALETNDLSEEELRAYIEEEARLVRLESEIIEL
B9: LC3A_28_1295 (protein)
chain: SEIEKNLKEALAEAKKAKAEGKQVVITVKVPGDATQEEIELVIKGLEEIAKVLEDVPNQTIIIDVEAGVKQEHIDLLADRAEEIEKKYPNVTVIIALDED
B10: LC3A_147_519 (protein)
chain: MKYKVTVTIYTDGPPEEAREIAEEVVEELKEKGLVEKAEIEVKEIDPDGTLTEVTITLYTKTKEKAEEAANEAVNRFEELAEKRGIKVYAISVEIEEIEE
B11: LC3A_45_1956 (protein)
chain: MYEATVYVLVPAEDFDRVAAVLREEAERLRRERGVEVEIDPAALAAAREEAEREGEALLEVRVIAETRQTALDAADEIADAVEAASPPSVAVAISVEEVP
B12: LC3A_28_1127 (protein)
chain: SEAKKAAEEALKKAKEEAEKGEYVVAEFTITDKMTEEEVDYVLEKIEETAEYLESKGQNSILVNIDIRNRPELRDYVIDKVDEIHKKYPSVNIVIALVEQ
B13: LC3A_28_748 (protein)
chain: SEIEKQLEEALKKAKEAAEKNEPVVITIKVSGSATEEDIEKVIEALYEIAEILKNVKDQAIIIDVDGSLKQEHLDKLVDAAEEIEKKYPNVTVIIALDEE
B14: LC3A_28_994 (protein)
chain: SELEKQLEEALKEAKEAAKAGKPTVITIKVPGSANEEDIEKVIKKLEEIAEILKDVKGSAIIIDLDGDLDEELRQKIIDAAEEIEKKYPNITVIIALDEE
B15: LC3A_36_1339 (protein)
chain: MKVITATSEKEDIEKATKKANEEGADLRVVFTPEDTVEEIREALELVLELSKNISSVIVDLDAATQEELMKKLKVASEVADKIEEKNGKTVIIAYDVVEP
B16: LC3A_141_379 (protein)
chain: MTETVTRTFADLPAAEAEAAGIATLRELFARARAAGAKTITITITVTATVDGKTHTRTETFTGPVTNEMVLGGAEVFLGLVALQFEGHKLTVTITATFTY
B17: LC3A_3_1731 (protein)
chain: MEEILKEAREKLESLGFSEEVIEAALETIEALLKKGLEEEVELLLETLEKIKDANQEDILYYLEEIKELVETSKESKEELAKKVKEEIKILENDSEIEEL
B18: LC3A_3_1534 (protein)
chain: MEEKIEETLKLLKEAGASEETLEKFKEAVEALKERGYEKALETLIEETKKLAGLPSEYLLEFFEEVLELIKNSDLNEEELIKKIREIARIVKNEAEIEEL
B19: LC3A_28_666 (protein)
chain: SELEENIKAALEEAKEAAEKGVPVVITIEVPGDATEEEIDKVIEAMEEIAEILKDIEGSAIIIDLEEGVAEEHRDKLIDKAEEIEEKYPNVTVIIAYPER
B20: LC3A_free_46_2436 (protein)
chain: VVVKIDVSLLHEDEEVLKKAVEEIVKKAKEIAEKYGGKIEIKVEFSEDEDGYHFADIEITVKVETKEKAEKIANELIDAIDEIVEKYDVSAIISVEIEEE
B21: LC3A_28_874 (protein)
chain: SRVEEELKKVEEEGKKQAEEGEDIVLHVKISSEFTLEEAVELMKRVLELAEKLVKETGLKVTIVVDFDGSQETLDAILKLAEEAEKRNPKITVIFAISEE
B22: LC3A_102_160 (protein)
chain: DIEEKIKEIIEEKVKEMEEFLEKEESLTEEEKKEILEIVRRALEAKARILLSEAQHGFVDLVAEDELLRAREELKQYPKRVQEKAEEILRRAEEEIKKLL
B23: LC3A_free_26_2134 (protein)
chain: EEWLDIAALDRAIDLLEEILKILEKNKGKYEELIKKVKKAIELLKKETLEALKEAAKLLKEILKELKKLKKEDPELMEKLIKLAEEALKLVEENIKIMES
B24: LC3A_28_1236 (protein)
chain: NKVEKQIEEAKKKVEEAVKKGEEALVTLTVTKETNQEDIEKIIKAMEEIAELGKDLPALSIIIDVEKGVKQEHIDKLAKAAEEIEEKYPNVTVIIALEEE
B25: LC3A_free_46_2363 (protein)
chain: MEIDIDLLAKNKSEEEVKKIAEEIKKDIEKAAKEHGVKVKIEYEIEKLEDGDYFISIKIEVEAETKEKAQAFETSVLDIVEKYSLKYNLSAIISITETKP
B26: LC3A_147_430 (protein)
chain: YITDVDIDILTKDAEEEVIEAAKEIAEELRAKGYDVELDIEVEDLENGEKYIDIEIEIETETEEEAKEAADYVIDKWDELEEKLKDKILGSIISVDIEKA
B27: LC3A_3_1677 (protein)
chain: MEKLLEEAKKTVDKTIKNKEVQAKFKEALDLLAERGLEENIKAVAELVKKMKNLPEEEQLAFANELLATVKAATGSPEAAAAAVASEIATLTNEIEIEEL
B28: LC3A_free_8_2540 (protein)
chain: NTEEATRKVTEALDELEERLREKARELGLPRLDILDLELLVGSTIAEVIGLRDGKIEDIRKAVKEGMEEVLKEAAELSPELAKLVKEGEKEILELLKELE
B29: LC3A_28_704 (protein)
chain: SMLEENIERALEEAKRAAEEGKEAVIEITVPSTATQEDIDKVIEALYEIAEIVKDLKRTSIIVNVEGGVKQEHIDKLIDAGEEIEKKYPNVTVIFALDEE

Whole data set: some 2,300 sequences, median “median log2 fold change of GCK-ALFA target abundance (FLAG IP / Myc IP barcode read proportion)” near 0.095, cut for the lowest 2% near -0.47. The list shows a part of the results.

The experiment addresses MAP1LC3A, Q9H492. Description: median log2 fold change of GCK-ALFA target abundance (FLAG IP / Myc IP barcode read proportion) (log2 ratio); each designed protein is fused to an ALFA-tag nanobody in HEK293 cells to bring the named protein to FLAG-tagged glucokinase (GCK); Myc marks an untargeted standard; higher = target protein stabilised (more abundant). The conditions noted are these: target protein: 3xFLAG-MCP-GCK-ALFA reporter; HEK293 landing pad (RPLP). Summed up:
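Binders fused to an ALFA nanobody were recombined as a library into HEK293 landing-pad cells, which were induced with 2 μg mL^−1 doxycycline and then transfected to express a FLAG-tagged target and a Myc-tagged standard. After 48 h, circular RNA barcodes recovered by anti-FLAG and anti-Myc immunoprecipitation of lysates were reverse transcribed, amplified and sequenced. Each binder's target abundance is the median log2 ratio of FLAG to Myc barcode read proportions, from barcodes present at ≥10^−7 in both replicates, binders carrying ≥3 barcodes per replicate, a 10^−6 pseudocount and pooled replicates.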
Turning to B1, the “median log2 fold change” value was 0.179. Next, B2: -0.128. For B3 the value was 0.247. Next, B4: 0.0697; B5: 0.0338. For the molecule B6, the “median log2 fold change” value was found to be 0.208.

On to B7, for which the “median log2 fold change” value was -0.314.

Take B8: the “median log2 fold change” value was determined as 0.0655. Next, B9: 0.184; B10: -0.278. As for B11, the “median log2 fold change” value was -0.323. Next, B12: -0.102; B13: -0.136; B14: -0.239.

For B15, the “median log2 fold change” value was 0.21. Next, B16: 0.216; B17: 0.00619. For B18, the “median log2 fold change” value is 0.231.

With B19, the “median log2 fold change” value was 0.165. In the case of B20, the “median log2 fold change” value was -0.464. As to B21, the “median log2 fold change” value is -0.0473. For the molecule B22, the “median log2 fold change” value came out at 0.285. For B23 the value was -0.142.

As to B24, the “median log2 fold change” value stood at 0.233. Next, B25: 0.0338; B26: -0.294. For B27 the value was 0.209. For B28 the value was 0.029; for B29, -0.0339.
